The results in this text go back to article PMC6884552, “Glycogen branching enzyme controls cellular iron homeostasis via Iron Regulatory Protein 1 and mitoNEET” (Nature Communications, 2019).

Results are given in words; binding and its absence hold for the method and conditions named. In cells and extracts the contact can be indirect. Some results given as binding are weak or reduced against the parent protein; the word gives no strength. Tags and fused reporters may be left off the sequences shown.

Experiment [1] concerns the target T1, Myc-tagged human Glycogen Branching Enzyme 1 (GBE1) (human) (UniProt Q04446).
T1 sequence: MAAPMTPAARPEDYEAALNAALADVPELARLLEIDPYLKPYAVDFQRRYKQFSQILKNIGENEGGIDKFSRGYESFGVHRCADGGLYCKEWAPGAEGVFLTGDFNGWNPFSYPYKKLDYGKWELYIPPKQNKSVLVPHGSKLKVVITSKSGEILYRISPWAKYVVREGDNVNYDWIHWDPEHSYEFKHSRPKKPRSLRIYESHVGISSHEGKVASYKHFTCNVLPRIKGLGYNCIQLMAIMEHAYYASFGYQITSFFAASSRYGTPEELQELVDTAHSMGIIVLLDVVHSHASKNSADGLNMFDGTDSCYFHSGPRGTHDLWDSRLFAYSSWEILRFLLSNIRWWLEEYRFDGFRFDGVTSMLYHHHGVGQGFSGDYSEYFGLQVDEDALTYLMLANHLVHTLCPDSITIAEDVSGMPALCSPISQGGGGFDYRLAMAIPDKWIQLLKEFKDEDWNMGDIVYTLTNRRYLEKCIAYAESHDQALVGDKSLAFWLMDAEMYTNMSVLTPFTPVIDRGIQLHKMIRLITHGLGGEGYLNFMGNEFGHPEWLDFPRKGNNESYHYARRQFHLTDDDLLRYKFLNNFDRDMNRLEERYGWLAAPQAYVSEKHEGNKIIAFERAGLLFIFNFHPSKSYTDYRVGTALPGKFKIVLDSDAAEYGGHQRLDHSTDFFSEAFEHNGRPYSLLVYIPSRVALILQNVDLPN
Nature of the experiment: co-IP; S2 cells co-transfected with two tagged cDNAs; Myc-tagged baits on Myc-Trap agarose, Flag-tagged baits on M2 Flag agarose; Western blot with anti-Flag, anti-HA or anti-Myc.

Experiment [2] concerns the target T2, Myc-tagged Drosophila 1,4-Alpha-Glucan Branching Enzyme (AGBE) (Drosophila) (UniProt A1Z992).
T2 sequence: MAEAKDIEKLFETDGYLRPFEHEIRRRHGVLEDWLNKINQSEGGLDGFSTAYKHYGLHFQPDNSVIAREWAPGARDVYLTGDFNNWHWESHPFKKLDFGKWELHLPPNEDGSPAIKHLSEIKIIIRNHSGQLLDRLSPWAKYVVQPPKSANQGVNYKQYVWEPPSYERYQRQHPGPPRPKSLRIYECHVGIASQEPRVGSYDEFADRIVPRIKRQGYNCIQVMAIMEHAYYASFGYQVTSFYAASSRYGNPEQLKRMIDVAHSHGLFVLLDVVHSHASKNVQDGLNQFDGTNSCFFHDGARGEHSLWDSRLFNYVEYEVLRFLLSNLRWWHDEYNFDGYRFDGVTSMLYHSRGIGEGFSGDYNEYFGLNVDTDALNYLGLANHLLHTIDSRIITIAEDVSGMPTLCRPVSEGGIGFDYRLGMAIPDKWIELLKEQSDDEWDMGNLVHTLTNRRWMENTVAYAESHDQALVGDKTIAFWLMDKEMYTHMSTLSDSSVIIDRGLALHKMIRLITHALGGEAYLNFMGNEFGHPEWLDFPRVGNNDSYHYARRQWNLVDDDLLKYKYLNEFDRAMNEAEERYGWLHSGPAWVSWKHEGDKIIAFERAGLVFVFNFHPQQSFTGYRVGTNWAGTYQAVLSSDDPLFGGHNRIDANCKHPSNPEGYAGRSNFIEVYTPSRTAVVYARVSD
The experiment is described as above.

B1: Flag-tagged human Iron Regulatory Protein 1 (IRP1) (protein, UniProt P21399 1-889)
chain: MSNPFAHLAEPLDPVQPGKKFFNLNKLEDSRYGRLPFSIRVLLEAAIRNCDEFLVKKQDIENILHWNVTQHKNIEVPFKPARVILQDFTGVPAVVDFAAMRDAVKKLGGDPEKINPVCPADLVIDHSIQVDFNRRADSLQKNQDLEFERNRERFEFLKWGSQAFHNMRIIPPGSGIIHQVNLEYLARVVFDQDGYYYPDSLVGTDSHTTMIDGLGILGWGVGGIEAEAVMLGQPISMVLPQVIGYRLMGKPHPLVTSTDIVLTITKHLRQVGVVGKFVEFFGPGVAQLSIADRATIANMCPEYGATAAFFPVDEVSITYLVQTGRDEEKLKYIKKYLQAVGMFRDFNDPSQDPDFTQVVELDLKTVVPCCSGPKRPQDKVAVSDMKKDFESCLGAKQGFKGFQVAPEHHNDHKTFIYDNTEFTLAHGSVVIAAITSCTNTSNPSVMLGAGLLAKKAVDAGLNVMPYIKTSLSPGSGVVTYYLQESGVMPYLSQLGFDVVGYGCMTCIGNSGPLPEPVVEAITQGDLVAVGVLSGNRNFEGRVHPNTRANYLASPPLVIAYAIAGTIRIDFEKEPLGVNAKGQQVFLKDIWPTRDEIQAVERQYVIPGMFKEVYQKIETVNESWNALATPSDKLFFWNSKSTYIKSPPFFENLTLDLQPPKSIVDAYVLLNLGDSVTTDHISPAGNIARNSPAARYLTNRGLTPREFNSYGSRRGNDAVMARGTFANIRLLNRFLNKQAPQTIHLPSGEILDVFDAAERYQQAGLPLIVLAGKEYGAGSSRDWAAKGPFLLGIKAVLAESYERIHRSNLVGMGVIPLEYLPGENADALGLTGQERYTIIIPENLKPQMKVQVKLDTGKTFQAVMRFDTDVELTYFLNGGILNYMIRKMAK
Consider B1, for which, in experiment [1], the binding result was “binds”.

B2: Flag-tagged Drosophila Iron Regulatory Protein 1A (IRP1A), wild type (protein, UniProt Q9VCV4 1-902)
chain: MSGSGANPFAQFQESFTQDGNVYKYFDLPSIDSKYESLPFSIRVLLESAVRNCDNFHVLEKDVQSILGWTPSLKQETSDVEVSFKPARVILQDFTGVPAVVDFAAMRDAVRELGGNPEKINPICPADLVIDHSVQVDFVRSSDALTKNESLEFQRNKERFTFLKWGARAFDNMLIVPPGSGIVHQVNLEYLARVVFESDSSADGSKILYPDSVVGTDSHTTMINGLGVLGWGVGGIEAEAVMLGQSISMLLPEVIGYRLEGKLGPLATSTDLVLTITKHLRQLGVVGKFVEFYGPGVAELSIADRATISNMCPEYGATVGYFPIDENTLSYMRQTNRSEKKIDIIRKYLKATRQLRDYSLVDQDPQYTESVTLDLSTVVTSVSGPKRPHDRVSVSSMCEDFKSCLISPVGFKGFAIPPSALAASGEFQWDDGKSYKIGHGSVVIAAITSCTNTSNPSVMLGAGLLAKNAVQKGLSILPYIKTSLSPGSGVVTYYLRESGVIPYLEQLGFDIVGYGCMTCIGNSGPLDENVVNTIEKNGLVCCGVLSGNRNFEGRIHPNTRANYLASPLLVIAYAIAGRVDIDFEIEPLGVDSNGKEVFLRDIWPTRSEIQEVEHKHVIPAMFQEVYSKIQLGSRDWQTLEVSDSKLYPWSEISTYIKLPPFFEGMTRALPKLKGIEKARCLLLLGDSVTTDHISPAGSIARKSPAARYLSERGLTPRDFNSYGSRRGNDAVMARGTFANIRLVNKLASKTGPSTLHVPSGEEMDIFDAAERYASEGTPLVLVVGKDYGSGSSRDWAAKGPFLLGIKAVIAESYERIHRSNLVGMGIIPLQFLPGQSADTLKLSGREVYNIVLPEGELKPGQRIQVDADGNVFETTLRFDTEVDITYYKNGGILNYMIRKMLD
For B2, the binding result in experiment [2] is given as “binds”.

B3: Flag-tagged Drosophila IRP1A 3R3Q (protein, UniProt Q9VCV4 1-902)
chain: MSGSGANPFAQFQESFTQDGNVYKYFDLPSIDSKYESLPFSIRVLLESAVRNCDNFHVLEKDVQSILGWTPSLKQETSDVEVSFKPARVILQDFTGVPAVVDFAAMRDAVRELGGNPEKINPICPADLVIDHSVQVDFVRSSDALTKNESLEFQRNKERFTFLKWGARAFDNMLIVPPGSGIVHQVNLEYLARVVFESDSSADGSKILYPDSVVGTDSHTTMINGLGVLGWGVGGIEAEAVMLGQSISMLLPEVIGYRLEGKLGPLATSTDLVLTITKHLRQLGVVGKFVEFYGPGVAELSIADRATISNMCPEYGATVGYFPIDENTLSYMRQTNRSEKKIDIIRKYLKATRQLRDYSLVDQDPQYTESVTLDLSTVVTSVSGPKRPHDRVSVSSMCEDFKSCLISPVGFKGFAIPPSALAASGEFQWDDGKSYKIGHGSVVIAAITSCTNTSNPSVMLGAGLLAKNAVQKGLSILPYIKTSLSPGSGVVTYYLRESGVIPYLEQLGFDIVGYGCMTCIGNSGPLDENVVNTIEKNGLVCCGVLSGNQNFEGQIHPNTRANYLASPLLVIAYAIAGRVDIDFEIEPLGVDSNGKEVFLRDIWPTRSEIQEVEHKHVIPAMFQEVYSKIQLGSRDWQTLEVSDSKLYPWSEISTYIKLPPFFEGMTRALPKLKGIEKARCLLLLGDSVTTDHISPAGSIARKSPAARYLSERGLTPRDFNSYGSRRGNDAVMARGTFANIRLVNKLASKTGPSTLHVPSGEEMDIFDAAERYASEGTPLVLVVGKDYGSGSSQDWAAKGPFLLGIKAVIAESYERIHRSNLVGMGIIPLQFLPGQSADTLKLSGREVYNIVLPEGELKPGQRIQVDADGNVFETTLRFDTEVDITYYKNGGILNYMIRKMLD
In the case of B3, in experiment [2], the binding result is recorded as “binds”.

B4: Flag-tagged Drosophila IRP1A C450S (protein, UniProt Q9VCV4 1-902)
chain: MSGSGANPFAQFQESFTQDGNVYKYFDLPSIDSKYESLPFSIRVLLESAVRNCDNFHVLEKDVQSILGWTPSLKQETSDVEVSFKPARVILQDFTGVPAVVDFAAMRDAVRELGGNPEKINPICPADLVIDHSVQVDFVRSSDALTKNESLEFQRNKERFTFLKWGARAFDNMLIVPPGSGIVHQVNLEYLARVVFESDSSADGSKILYPDSVVGTDSHTTMINGLGVLGWGVGGIEAEAVMLGQSISMLLPEVIGYRLEGKLGPLATSTDLVLTITKHLRQLGVVGKFVEFYGPGVAELSIADRATISNMCPEYGATVGYFPIDENTLSYMRQTNRSEKKIDIIRKYLKATRQLRDYSLVDQDPQYTESVTLDLSTVVTSVSGPKRPHDRVSVSSMCEDFKSCLISPVGFKGFAIPPSALAASGEFQWDDGKSYKIGHGSVVIAAITSSTNTSNPSVMLGAGLLAKNAVQKGLSILPYIKTSLSPGSGVVTYYLRESGVIPYLEQLGFDIVGYGCMTCIGNSGPLDENVVNTIEKNGLVCCGVLSGNRNFEGRIHPNTRANYLASPLLVIAYAIAGRVDIDFEIEPLGVDSNGKEVFLRDIWPTRSEIQEVEHKHVIPAMFQEVYSKIQLGSRDWQTLEVSDSKLYPWSEISTYIKLPPFFEGMTRALPKLKGIEKARCLLLLGDSVTTDHISPAGSIARKSPAARYLSERGLTPRDFNSYGSRRGNDAVMARGTFANIRLVNKLASKTGPSTLHVPSGEEMDIFDAAERYASEGTPLVLVVGKDYGSGSSRDWAAKGPFLLGIKAVIAESYERIHRSNLVGMGIIPLQFLPGQSADTLKLSGREVYNIVLPEGELKPGQRIQVDADGNVFETTLRFDTEVDITYYKNGGILNYMIRKMLD
B4: the binding result in experiment [2] is recorded as “no binding”.
